Data: PubChem BioAssay AID485297 (National Center for Advancing Translational Sciences (NCATS), 2010)
Hit rate of the full screen: of about 320,000 compounds, about 9,100 (2.8%) were called active. The shares of active, inactive and inconclusive entries below differ from those in the screen. The call rests on the fitted dose curve; in most records, active means well fitted activation curve with a large enough effect; inconclusive means small, poorly fitted or top-dose-only effect; inactive means no such curve, though single readings can be large or run the other way. No potency is given beside an inconclusive call; the fits are too rough.

assay: qHTS Assay for Rab9 Promoter Activators; conditions: Huh7 Rab9 promoter-luciferase reporter, luminescence, 24 h; series mostly up to 9.22 µM; activation, negative = inhibition: at the top concentration; further: nearly all actives have a fitted effect of over 60% in size; on activation, negative = inhibition: % of control where 0% means no effect
Outline: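 Cell-based reporter: Huh7 stable for Rab9 promoter-driven luciferase, plated in reduced-serum medium with 10% FBS at 1500 cells/well, compound-treated 24 h at 37 °C, luminescence read after 10 min reagent.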
Potency means the concentration at half of the fitted maximal effect; tags describe the fitted curve by direction and shape.

| SMILES | Potency | activation, negative = inhibition |
| --- | --- | --- |
| Cc1nc(NC(=O)C23CC4CC(CC(C4)C2)C3)sc1Cc1ccc2c(c1)OCO2 | inconclusive [activator, single point] |  |
| c1ccc(Nc2nc(CSc3ncn[nH]3)cs2)cc1 | inconclusive [activator, partial curve] |  |
| O=C(CCc1ccccc1)Nc1ccc(F)cc1F | inconclusive [activator, single point] |  |
| O=C(/C=C/c1ccco1)Nc1ccc(CN2CCOCC2)cc1 | active: 2.82 µM |  |
| Cn1c(SCC(=O)NC(=O)NCc2ccccc2)nnc1C(F)(F)F |  | inactive: -7.95% |
| c1ccc(CSc2ncn(-c3ccccc3)n2)cc1 | active: 2.24 µM |  |
| COc1ccccc1C(=O)Nc1ccc(C(=O)c2ccccc2)cc1 | inconclusive [activator, single point] |  |
| CCNC(=O)COC(=O)c1ccc(-c2nc3ccccc3s2)s1 | inconclusive [activator, full curve, poor fit] |  |
| COc1ccc(CNC(=O)/C=C/c2ccccc2[N+](=O)[O-])cc1 |  | inactive: -0.93% |
| CN(c1cccc(NC(=O)COc2ccc(Cl)cc2Cl)c1)S(C)(=O)=O | inconclusive [activator, partial curve] |  |
| COc1ccc([C@H]2CC(=O)C=C(c3cccc(Cl)c3)C2)cc1 |  | inactive: -3.66% |
| O=C(NCC1CCCO1)c1ccc2nc(N3CCCCC3)sc2c1 (centres undefined) | inconclusive [activator, partial curve] |  |
| CC(Cl)C(=O)c1ccc2c(c1)CCN2C(=O)C1CC1 (centres undefined) | inconclusive [activator, single point] |  |
| C/C(=N/NC(=O)c1ccc2nc[nH]c2c1)c1cccs1 | active: 1.41 µM |  |
| O=C(Nc1nccs1)c1ccc2nccnc2c1 | inconclusive [activator, partial curve] |  |
| COC(=O)c1c(NC(=O)C2CC2)sc(C(=O)Nc2ccccc2)c1C | inconclusive [activator, partial curve] |  |
| Oc1ccccc1C=Nc1ccccc1-c1nc2ccccc2[nH]1 | inconclusive [activator, single point] |  |
| Cc1ccc(-n2ncc3c2ncn2nc(-c4ccco4)nc32)c(C)c1 | inconclusive [activator, partial curve] |  |
| CC(=O)c1cccc(OCc2cc(C(=O)N3CC4C[C@@H]5CC3C[C@H](C4)C5)no2)c1 |  | inactive: -4.4% |
| Cc1ccc(Nc2nc(N)c(C#N)c(CC#N)c2C#N)cc1 |  | inactive: 12% |
| Cc1ccc(C)c(NC(=S)Nc2ncccc2C)c1 | inconclusive [activator, single point] |  |
| Cc1[nH]c2ccccc2c1C(=O)C(=O)NCCC1=CCCCC1 |  | inactive: -0.111% |
| CCCCOc1ccc(C(=O)NCC(=O)NCC(c2cccs2)N2CCOCC2)cc1 (centres undefined) |  | inactive: 1.96% |
| O=C(O)c1cccc(NC(=S)NC(=O)c2cccc(OCc3ccccc3)c2)c1 | inconclusive [activator, single point] |  |
| O=C(COc1ccccc1)NNc1nc2c(F)cc(F)cc2s1 |  | inactive: 8.9% |
| CCOCCCNC(=O)c1ccc2c(c1)OCO2 | inconclusive [activator, partial curve] |  |
| Cc1ccc(CN=c2c([N+](=O)[O-])nn(-c3cccc(C)c3)n2O)cc1 | inconclusive [activator, single point] |  |

| SMILES | Potency | activation, negative = inhibition |
| --- | --- | --- |
| COc1ccc(/C(N)=C/C(=O)C(C)(C)C)cc1 | inconclusive [activator, single point] |  |
| Cc1ccc(-c2nc3ccc([N+](=O)[O-])cc3[nH]2)cc1 | active: 1.58 µM |  |
| Cc1nn(C)cc1/C=C/C(=O)c1ccccc1 | inconclusive [activator, single point] |  |
| Cc1c(C(=O)O)[nH]c2c1C(=O)CC(c1ccc(C(C)(C)C)cc1)C2 (centres undefined) | inconclusive [activator, single point] |  |
| Cc1[nH]c2ccccc2c1C(=O)/C=C/c1ccccc1Cl | active: 3.16 µM |  |
| O=C1OC(c2ccc(Cl)cc2)=N/C1=C\C=C\c1ccco1 |  | inactive: -4.44% |
| COc1ccc2cc(C(=O)c3ccccc3)c(=O)oc2c1 | inconclusive [activator, partial curve] |  |
| Cc1ccc(-n2nc(-c3ccc(N)cc3)cc2N)cc1 | inconclusive [activator, partial curve] |  |
| COc1ccc(C2CC(c3ccc(C)o3)=NN2C(C)=O)cc1 (centres undefined) | inconclusive [activator, partial curve] |  |
| CCOc1cccc(OCCn2cnc3ccccc3c2=O)c1 | inconclusive [activator, single point] |  |
| O=C(CNC(=O)c1ccccc1F)N/N=C/c1ccc2c(c1)OCO2 | inconclusive [activator, partial curve] |  |
| Cc1cc(=O)oc2cc(NC(=O)c3ccccc3Cl)ccc12 | active: 3.55 µM |  |
| COc1cc(CNc2ncn[nH]2)ccc1OCc1ccccc1C | inconclusive [activator, partial curve] |  |
| COC(=O)c1ccc(N=Nc2ccccc2)cc1 | inconclusive [activator, single point] |  |
| CCc1nnc(NC(=O)c2cccnc2SC)s1 |  | inactive: -0.968% |
| Cc1cc(C)c(OCC(=O)Nc2cccc(O)c2)cc1C | inconclusive [activator, single point] |  |
| N/C(=N\OC(=O)c1ccc(Cl)cc1)c1ccc(Cl)cc1 | inconclusive [activator, partial curve] |  |
| Cc1ccsc1/C=C(\CC(=O)O)c1nc2ccccc2o1 | inconclusive [activator, partial curve] |  |
| CCc1ncc(/C=C2\C(=O)Nc3ccccc32)[nH]1 | inconclusive [activator, single point] |  |
| O=C1NC[C@@H](Cc2cccc3ccccc23)N(CCCCC2CCCCC2)C1=O |  | inactive: -2.94% |
| CN(C)S(=O)(=O)c1ccc(C(=O)NCC(=O)N/N=C/c2cccs2)cc1 | inconclusive [activator, single point] |  |
| COc1ccc(CNC(=O)CN(C(=O)CCC(=O)Nc2nccs2)c2ccccc2C)cc1 |  | inactive: -1.32% |
| CCNC(=O)c1cc(S(=O)(=O)N2CCSCC2)ccc1OC |  | inactive: -2.96% |
| C/C(=N/NC(=O)c1cccs1)c1c(C)[nH]n(-c2nc3ccccc3s2)c1=O | active: 2 µM |  |
| CC(C)Nc1cc(C(C)(C)C)nc2c(-c3ccccc3)cnn12 | active: 2.82 µM |  |
| O=C(c1cc(-c2ccccc2O)on1)N1CCCCCC1 | inconclusive [activator, partial curve] |  |
| O=C(NC1CCCC1)c1cc2ccccc2o1 | inconclusive [activator, single point] |  |

| SMILES | Potency | activation, negative = inhibition |
| --- | --- | --- |
| CCCOc1ccccc1NC(=O)c1ccc([N+](=O)[O-])cc1 |  | inactive: 20.1% |
| CC(=O)Nc1c(O)nc(SCC(=O)Nc2ccc(C(C)=O)cc2)[nH]c1=O | inconclusive [activator, partial curve] |  |
| CCN(CC)C(=O)Oc1ccc2c(=O)c(-c3ccccc3)coc2c1 | active: 3.55 µM |  |
| COc1ccc(C(=O)Nc2ccc(Cl)c(Cl)c2)c(OC)n1 | inconclusive [activator, single point] |  |
| COc1ccc(C(=O)NCCc2nnc(SCC(=O)Nc3ccccc3F)n2C)cc1 |  | inactive: 8.42% |
| O=C(/C=C/c1ccc2ccccc2c1)c1ccoc1 | inconclusive [activator, partial curve] |  |
| CN(CC(=O)Nc1ccccc1Br)C(=O)COc1ccc2ccccc2c1 |  | inactive: -4.87% |
| c1cnc2nc(CSc3ncn[nH]3)cn2c1 |  | inactive: 0.242% |
| Cc1cccc(OCCCn2c(CO)nc3ccccc32)c1 | inconclusive [activator, single point] |  |
| Cc1ccccc1C(=O)Nc1nnc(-c2ccco2)o1 | inconclusive [activator, partial curve] |  |
| O=C(Nc1nc(-c2ccccc2)cs1)c1ccc(=O)[nH]c1 | inconclusive [activator, partial curve] |  |
| Cc1cc(NC(=O)c2cnn3cccnc23)no1 | inconclusive [activator, partial curve] |  |
| Cc1cc(C(=O)CSc2cccc[n+]2[O-])c(C)n1-c1ccc(Br)cc1 |  | inactive: 23.9% |
| CN1C(=O)CSc2ccc(NC(=O)Nc3ccccn3)cc21 | active: 2.82 µM |  |
| Cc1ccc(C(=O)NCCc2cccs2)cc1 | active: 0.1 µM |  |
| CC(Oc1ccccc1)C(=O)OCC(=O)N1CC(=O)Nc2ccccc21 (centres undefined) |  | inactive: -1.6% |
| COc1ccc(C(=O)N2CCNC(=O)C2CC(=O)Nc2cc(Cl)ccc2OC)cc1 (centres undefined) |  | inactive: 7.25% |
| O=C(N/N=C\c1ccc2c(c1)OCO2)c1ccco1 | active: 1.78 µM |  |
| CCC(=O)Nc1cccc(-n2nnnc2SCC(=O)NCc2ccco2)c1 |  | inactive: 1.96% |
| COc1ccc(C(=O)Nc2ccccc2C(=O)N2CCCCCC2)cc1OC |  | inactive: 5.45% |
| COc1ccc(C(CC(=O)c2ccccc2)S(=O)(=O)c2ccc(C)cc2)cc1 (centres undefined) | active: 3.98 µM |  |
| COc1ccccc1N1CCN(S(=O)(=O)c2ccc3c(c2)n(C)c(=O)n3C)CC1 |  | inactive: -1.32% |
| COc1ccc(NC(=O)Nc2cc(C)ccc2F)cc1OC | inconclusive [activator, partial curve] |  |
| Cc1ccc(-c2csc(CC(N)=O)n2)cc1 | inconclusive [activator, single point] |  |
| Cn1ncc([N+](=O)[O-])c1C(=O)Nc1ccc(-c2nc3ccccc3o2)cc1 | inconclusive [activator, partial curve] |  |
